Experimental data taken from PMC3797442, “Analysis of the role of Arabidopsis class I TCP genes AtTCP7, AtTCP8, AtTCP22, and AtTCP23 in leaf development”.
Like-named read-outs stand apart in the source and are kept apart here. These are yes or no findings as the source states them, for the method shown. Some binding calls cover weakened binding; strength is not graded here.

Protein sequences, listed by entry. Tags and fused reporters are not part of them.
UniProt Q9FTA2: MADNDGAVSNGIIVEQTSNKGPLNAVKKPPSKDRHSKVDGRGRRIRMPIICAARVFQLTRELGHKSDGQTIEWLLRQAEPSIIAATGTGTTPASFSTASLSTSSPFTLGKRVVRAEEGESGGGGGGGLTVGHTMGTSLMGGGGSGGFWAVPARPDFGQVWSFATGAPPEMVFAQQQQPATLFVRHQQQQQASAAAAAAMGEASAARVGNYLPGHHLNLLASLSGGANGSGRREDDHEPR
UniProt Q9LQF0: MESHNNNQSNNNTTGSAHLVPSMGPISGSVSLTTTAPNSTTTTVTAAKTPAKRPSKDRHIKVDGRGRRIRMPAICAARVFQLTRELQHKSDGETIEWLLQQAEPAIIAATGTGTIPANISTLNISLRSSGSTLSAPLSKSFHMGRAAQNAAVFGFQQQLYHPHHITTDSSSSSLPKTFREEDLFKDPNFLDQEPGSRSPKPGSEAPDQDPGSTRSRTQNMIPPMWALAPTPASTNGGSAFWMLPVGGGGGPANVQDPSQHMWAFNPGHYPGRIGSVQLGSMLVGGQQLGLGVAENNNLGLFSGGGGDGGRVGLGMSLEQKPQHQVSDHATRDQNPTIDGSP
UniProt Q9C518: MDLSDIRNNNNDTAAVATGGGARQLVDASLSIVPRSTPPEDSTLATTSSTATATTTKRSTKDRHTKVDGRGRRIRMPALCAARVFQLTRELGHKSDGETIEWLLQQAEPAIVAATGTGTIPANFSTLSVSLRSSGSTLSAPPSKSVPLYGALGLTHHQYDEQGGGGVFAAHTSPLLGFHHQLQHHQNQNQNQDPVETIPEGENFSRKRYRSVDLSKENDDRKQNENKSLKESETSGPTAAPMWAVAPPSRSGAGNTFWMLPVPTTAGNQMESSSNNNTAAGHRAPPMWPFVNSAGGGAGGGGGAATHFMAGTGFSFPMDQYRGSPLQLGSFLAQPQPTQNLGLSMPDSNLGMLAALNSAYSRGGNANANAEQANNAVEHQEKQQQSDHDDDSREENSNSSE
UniProt Q9FMX2: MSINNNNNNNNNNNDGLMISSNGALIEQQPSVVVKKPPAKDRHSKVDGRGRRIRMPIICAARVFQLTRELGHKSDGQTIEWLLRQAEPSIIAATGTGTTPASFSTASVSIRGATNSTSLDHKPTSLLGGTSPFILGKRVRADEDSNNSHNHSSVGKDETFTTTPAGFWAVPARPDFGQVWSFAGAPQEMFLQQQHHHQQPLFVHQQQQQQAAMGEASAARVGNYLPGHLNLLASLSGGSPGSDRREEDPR

T1: AtTCP2 (Arabidopsis thaliana) (UniProt Q93V43)
T1 sequence: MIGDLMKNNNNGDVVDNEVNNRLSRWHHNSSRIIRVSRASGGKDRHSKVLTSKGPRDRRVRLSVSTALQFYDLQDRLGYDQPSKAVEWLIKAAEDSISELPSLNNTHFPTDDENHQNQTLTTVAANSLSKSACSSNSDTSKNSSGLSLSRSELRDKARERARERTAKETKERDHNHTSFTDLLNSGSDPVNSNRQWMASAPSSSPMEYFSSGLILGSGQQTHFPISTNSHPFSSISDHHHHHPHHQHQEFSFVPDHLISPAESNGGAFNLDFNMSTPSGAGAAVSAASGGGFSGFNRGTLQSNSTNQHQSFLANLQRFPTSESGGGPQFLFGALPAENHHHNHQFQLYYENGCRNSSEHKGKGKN


Columns and labels:
Experiment in all cases: two-hybrid; Gal4 DNA-binding domain baits (pGBKT7) and GAL4 activation domain preys (pGADT7) co-transformed into yeast strain AH109; β-galactosidase filter assay on -L-T-H-A + X-gal medium; graded +++ strong, ++ medium, + mild, − no interaction
[1] = target: AtTCP15 (Arabidopsis thaliana) (UniProt Q9C9L2)
[2] = target: T1, AtTCP2 (Arabidopsis thaliana)
[3] = target: AtTCP21 (Arabidopsis thaliana) (UniProt Q9FTA2)
[4] = target: AtTCP23 (Arabidopsis thaliana) (UniProt Q9LQF0)
[5] = target: AtTCP8 (Arabidopsis thaliana) (UniProt Q9C518)
[6] = target: AtTCP15 (Arabidopsis thaliana) (UniProt Q9C9L2); remark: listed apart in the source
[7] = target: AtTCP21 (Arabidopsis thaliana) (UniProt Q9FTA2); remark: listed apart in the source
[8] = target: AtTCP23 (Arabidopsis thaliana) (UniProt Q9LQF0); remark: listed apart in the source
[9] = target: AtTCP8 (Arabidopsis thaliana) (UniProt Q9C518); remark: listed apart in the source

Row | binding [1] | binding [2] | binding [3] | binding [4] | binding [5] | binding [6] | binding [7] | binding [8] | binding [9] | Molecule
1 | no binding | no binding | binds weakly | binds | binds weakly |  |  |  |  | AtTCP7 (from UniProt Q9FMX2 1-250)
2 | no binding | no binding | binds | no binding |  |  |  |  |  | AtTCP8 (from UniProt Q9C518 1-401)
3 |  | no binding |  |  |  |  |  |  |  | AtTCP15 (from UniProt Q9C9L2 1-325)
4 | no binding | no binding |  | no binding |  |  |  |  |  | AtTCP21 (from UniProt Q9FTA2 1-239)
5 | no binding | no binding |  |  |  |  |  |  |  | AtTCP23 (from UniProt Q9LQF0 1-341)
6 |  |  |  |  |  | no binding | no binding | no binding | no binding | AtTCP3 (protein, UniProt Q9MAH8 1-391) MAPDNDHFLDSPSPPLLEMRHHQSATENGGGCGEIVEVQGGHIVRSTGRKDRHSKVCTAKGPRDRRVRLSAPTAIQFYDVQDRLGFDRPSKAVDWLITKAKSAIDDLAQLPPWNPADTLRQHAAAAANAKPRKTKTLISPPPPQPEETEHHRIGEEEDNESSFLPASMDSDSIADTIKSFFPVASTQQSYHHQPPSRGNTQNQDLLRLSLQSFQNGPPFPNQTEPALFSGQSNNQLAFDSSTASWEQSHQSPEFGKIQRLVSWNNVGAAESAGSTGGFVFASPSSLHPVYSQSQLLSQRGPLQSINTPMIRAWFDPHHHHHHHQQSMTTDDLHHHHPYHIPPGIHQSAIPGIAFASSGEFSGFRIPARFQGEQEEHGGDNKPSSASSDSRH
